{"source": "the BET-seq Pho4 binding data (Le et al. 2018)", "note": "This is one part of the list. These are noisy estimates, calculated here from bound and input reads."}
{"target": "T1, Pho4 (S. cerevisiae) (UniProt P07270)", "T1 sequence": "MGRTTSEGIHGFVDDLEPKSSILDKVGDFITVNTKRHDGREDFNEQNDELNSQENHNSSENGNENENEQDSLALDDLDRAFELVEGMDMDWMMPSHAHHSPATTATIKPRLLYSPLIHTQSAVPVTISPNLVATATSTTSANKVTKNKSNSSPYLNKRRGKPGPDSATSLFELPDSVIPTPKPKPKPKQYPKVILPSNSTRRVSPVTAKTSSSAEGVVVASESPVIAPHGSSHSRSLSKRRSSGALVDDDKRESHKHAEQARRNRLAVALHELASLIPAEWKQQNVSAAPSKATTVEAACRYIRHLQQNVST", "assay": "relative binding free energy (BET-seq); higher = weaker binding", "conditions": "reference: library average", "units": {"relative binding free energy": "kJ/mol"}}
{"sequence": "AAGGACACGTGTTTTA", "relative binding free energy": 0.628}
{"sequence": "TGGTGCACGTGATTCG", "relative binding free energy": 0.0418}
{"sequence": "TGGGGCACGTGTGGAA", "relative binding free energy": 0.209}
{"sequence": "TAAGGCACGTGCGGAT", "relative binding free energy": -0.544}
{"sequence": "AGTTTCACGTGAAGTT", "relative binding free energy": 2.05}
{"sequence": "TTGATCACGTGTGCGT", "relative binding free energy": 0.418}
{"sequence": "ATGGCCACGTGAGGGT", "relative binding free energy": 0.586}
{"sequence": "TCGTACACGTGCTTGG", "relative binding free energy": 0.544}
{"sequence": "GGTGACACGTGGGTCC", "relative binding free energy": 0.0837}
{"sequence": "TACGGCACGTGGGATT", "relative binding free energy": 0.167}
{"sequence": "ACGGGCACGTGAGTGG", "relative binding free energy": 0.293}
{"sequence": "TGGTTCACGTGTAAGA", "relative binding free energy": 1.55}
{"sequence": "TTCGGCACGTGTCATT", "relative binding free energy": 0.0418}
{"sequence": "AGGCTCACGTGTAGCG", "relative binding free energy": 1.46}
{"sequence": "AATTACACGTGGGTGC", "relative binding free energy": 0.0418}
{"sequence": "GTTGGCACGTGGAGAA", "relative binding free energy": -0.377}
{"sequence": "CTTTTCACGTGCTGTG", "relative binding free energy": 1.46}
{"sequence": "ATAGACACGTGGTGTG", "relative binding free energy": -0.502}
{"sequence": "TATTTCACGTGTGTGA", "relative binding free energy": 0.962}
{"sequence": "GGGAGCACGTGTGATT", "relative binding free energy": -0.167}
{"sequence": "AAGGTCACGTGGAGTA", "relative binding free energy": 0}
{"sequence": "TGTTCCACGTGCTGGG", "relative binding free energy": -0.126}
{"sequence": "AGTGGCACGTGGATAT", "relative binding free energy": -0.962}
{"sequence": "TGAGGCACGTGACGTT", "relative binding free energy": 0.126}
{"sequence": "GAGTACACGTGGGTTT", "relative binding free energy": -0.167}
{"sequence": "AGATTCACGTGAATAT", "relative binding free energy": 1.67}
{"sequence": "GTTCTCACGTGGGTTC", "relative binding free energy": 0.795}
{"sequence": "ATGTCCACGTGGGTAG", "relative binding free energy": -0.126}
{"sequence": "CGTGGCACGTGTTGAG", "relative binding free energy": -0.167}
{"sequence": "GTTTCCACGTGTTGGG", "relative binding free energy": 0.795}
{"sequence": "ATGTGCACGTGGGTAC", "relative binding free energy": -0.92}
{"sequence": "ATCGGCACGTGGTAAG", "relative binding free energy": -0.46}
{"sequence": "TTTTGCACGTGCAGTG", "relative binding free energy": 0.126}
{"sequence": "CTGTGCACGTGCTGGG", "relative binding free energy": -0.293}
{"sequence": "GGCTGCACGTGATCGG", "relative binding free energy": 1}
{"sequence": "CAGGTCACGTGTTGCG", "relative binding free energy": 0.711}
{"sequence": "GCCGGCACGTGTGGTG", "relative binding free energy": -0.0837}
{"sequence": "ATTTTCACGTGGAGTT", "relative binding free energy": 1.17}
{"sequence": "AAAAGCACGTGGGTGG", "relative binding free energy": -0.962}
{"sequence": "ATTAGCACGTGAAGTG", "relative binding free energy": 1.34}
{"sequence": "TGGTTCACGTGTCGCT", "relative binding free energy": 0.92}
{"sequence": "TTAAGCACGTGTGTAG", "relative binding free energy": -0.418}
{"sequence": "ACGAGCACGTGAGTGT", "relative binding free energy": 0.502}
{"sequence": "GGGGGCACGTGTTGTC", "relative binding free energy": -0.293}
{"sequence": "TTCGGCACGTGTTTGC", "relative binding free energy": -0.251}
{"sequence": "GGTGGCACGTGCGGAG", "relative binding free energy": -0.293}
{"sequence": "GGCAGCACGTGTGTAA", "relative binding free energy": 0.502}
{"sequence": "TTGGGCACGTGGGGGT", "relative binding free energy": -0.586}
{"sequence": "ACAAGCACGTGGGTGG", "relative binding free energy": -0.837}
{"sequence": "GCTGTCACGTGAGAGT", "relative binding free energy": 1.55}
{"sequence": "GGGCTCACGTGTAAGT", "relative binding free energy": 0.795}
{"sequence": "TGGTACACGTGGGTTC", "relative binding free energy": 0.0418}
{"sequence": "ATTAGCACGTGGAGGA", "relative binding free energy": -0.167}
{"sequence": "TGTGGCACGTGTCTCG", "relative binding free energy": -0.628}
{"sequence": "GGTAGCACGTGTGTAA", "relative binding free energy": -0.209}
{"sequence": "GGGATCACGTGTGATA", "relative binding free energy": 1.34}
{"sequence": "TGGTTCACGTGATCGA", "relative binding free energy": 1.38}
{"sequence": "GTTATCACGTGGGGAC", "relative binding free energy": 0.167}
{"sequence": "TAGTACACGTGTATAA", "relative binding free energy": 0.586}
{"sequence": "GTGATCACGTGCCGGG", "relative binding free energy": 0.251}
{"sequence": "GTAGTCACGTGTTATT", "relative binding free energy": 0.795}
{"sequence": "TGTCACACGTGAAGTG", "relative binding free energy": 1.3}
{"sequence": "AAGGGCACGTGGCTAG", "relative binding free energy": -0.879}
{"sequence": "ACGTTCACGTGTCGGG", "relative binding free energy": 0.795}
{"sequence": "ATTCTCACGTGTGGAT", "relative binding free energy": 1.26}
{"sequence": "GATTTCACGTGTAGGA", "relative binding free energy": 1.67}
{"sequence": "TAAGTCACGTGTCAGT", "relative binding free energy": 0.628}
{"sequence": "GCTTGCACGTGTGTTC", "relative binding free energy": 0.795}
{"sequence": "CTAGTCACGTGAGGGA", "relative binding free energy": 0.837}
{"sequence": "GACTTCACGTGAAGGG", "relative binding free energy": 1.46}
{"sequence": "TATTCCACGTGGTGAT", "relative binding free energy": -0.0837}
{"sequence": "GTAAGCACGTGTTAAG", "relative binding free energy": 0.251}
{"sequence": "GTGTACACGTGGTCTG", "relative binding free energy": -0.586}
{"sequence": "GGTGCCACGTGCTTGT", "relative binding free energy": -0.628}
{"sequence": "TAGAGCACGTGTTTCA", "relative binding free energy": 0.167}
{"sequence": "GGCTGCACGTGTGGGA", "relative binding free energy": 0.293}
{"sequence": "AAAGTCACGTGAATGG", "relative binding free energy": 1.09}
{"sequence": "AGTGTCACGTGTCTAA", "relative binding free energy": -0.0837}
{"sequence": "ACAGACACGTGTAGGT", "relative binding free energy": 0.293}
{"sequence": "CGGTTCACGTGGGCGA", "relative binding free energy": 0.251}
{"sequence": "TAAGACACGTGAAGGG", "relative binding free energy": 0.92}
{"sequence": "TGGTGCACGTGGACTG", "relative binding free energy": -0.126}
{"sequence": "CTGGTCACGTGATGAG", "relative binding free energy": 0.293}
{"sequence": "TTATTCACGTGGTGAA", "relative binding free energy": 0.711}
{"sequence": "CCGGACACGTGTGGTG", "relative binding free energy": 0.377}
{"sequence": "TTAGTCACGTGTGATC", "relative binding free energy": 1}
{"sequence": "AGCGTCACGTGGGTGG", "relative binding free energy": -0.209}
{"sequence": "GTTGTCACGTGGGGTA", "relative binding free energy": 0.0837}
{"sequence": "CGTGTCACGTGCGGGG", "relative binding free energy": 0}
{"sequence": "ATTTACACGTGTACTT", "relative binding free energy": 0.251}
{"sequence": "CTTGTCACGTGTGGGA", "relative binding free energy": 0.628}
{"sequence": "ATGGGCACGTGTAAGC", "relative binding free energy": 0.502}
{"sequence": "ATTGGCACGTGCAGCG", "relative binding free energy": -0.544}
{"sequence": "AAAGGCACGTGGGTAA", "relative binding free energy": -1}
{"sequence": "CTGAGCACGTGGTATT", "relative binding free energy": -0.753}
{"sequence": "TGTGACACGTGCGGTA", "relative binding free energy": 0.335}
{"sequence": "TGTCGCACGTGGGCTA", "relative binding free energy": -0.879}
{"sequence": "ATTATCACGTGTGTTG", "relative binding free energy": 0.711}
{"sequence": "TCAGTCACGTGTTTAG", "relative binding free energy": 0.335}
{"sequence": "GGGTGCACGTGACTCG", "relative binding free energy": 0.753}
{"sequence": "AATATCACGTGATGGG", "relative binding free energy": 0.879}
{"sequence": "TTAACCACGTGGCTGG", "relative binding free energy": 0}
{"sequence": "TATTGCACGTGTGGGC", "relative binding free energy": 0.126}
{"sequence": "TGTGTCACGTGACTCT", "relative binding free energy": 0.962}
{"sequence": "GTTATCACGTGCGTTG", "relative binding free energy": 0.795}
{"sequence": "ATATACACGTGAGGGC", "relative binding free energy": 1.05}
{"sequence": "GGAGTCACGTGTTCGG", "relative binding free energy": 0.711}
{"sequence": "ATGCGCACGTGGTGGC", "relative binding free energy": -0.879}
{"sequence": "ATAGGCACGTGCGCTG", "relative binding free energy": -0.502}
{"sequence": "GTGATCACGTGTTTGA", "relative binding free energy": 0.837}
{"sequence": "CAGGACACGTGTGTGG", "relative binding free energy": 0.0418}
{"sequence": "AATAGCACGTGAGTTA", "relative binding free energy": 0.711}
{"sequence": "CGATGCACGTGATGTG", "relative binding free energy": 0.0418}
{"sequence": "TTAGTCACGTGCTAGG", "relative binding free energy": 0.335}
{"sequence": "TGTGTCACGTGGTTTA", "relative binding free energy": 0.46}
